# Data from PubChem BioAssay AID1347417 (National Center for Advancing Translational Sciences (NCATS), 2020).
# In all, about 120,000 compounds went through this assay and about 5,300 (4.4%) were called active. The inconclusive results got no clear call from the source; some entries with a clear call stand among them for comparison. Calls follow the shape of the dose curve; as a rule, active = well fitted inhibition curve with a large enough effect; inconclusive = small, poorly fitted or top-dose-only effect; inactive = no such curve, though single readings can be large or run the other way. Potencies beside an inconclusive call are fits to weak or partial responses and may not hold up.
# Test: qHTS Primary assay for Inhibitors of Plasmodium falciparum Dd2 growth in vitro; also: nearly all actives have a fitted effect of over 65% in size;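 as to activity, negative = inhibition: plate controls were DMSO vehicle for no effect and reference drug for full effect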
# Conditions: P. falciparum Dd2 growth, SYBR Green, 72 h; activity, negative = inhibition: at 28.9 µM (top of the series) unless noted; series mostly up to 28.9 µM
# How it was run: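 Infected erythrocytes (Dd2, 0.3% parasitemia, 2.5% hematocrit final) are added to compound in RPMI-1640/Albumax II medium, grown 72 h at 37C in low oxygen, then lysed with saponin/Triton-X containing SYBR Green and read by fluorescence.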
# Potency is read from the fitted curve at half-maximal effect; tags tell the direction and shape of the fitted curve.
Structure (SMILES),Potency,"activity, negative = inhibition"
COc1ccc(CN2Cc3cc(NC(=O)Cc4cccs4)ccc3OC(C)C2=O)cc1 (stereo not drawn),inactive,
COc1ccc(C)cc1Nc1c2c(nc3ccccc13)CCC2,active: 12.6 µM,
O=C(NCc1ccncc1)[C@@H]1C[C@@H](c2ccc(F)cc2)N(Cc2ccccc2)C1,"inconclusive: 0.794 µM [inhibitor, full curve, poor fit]",
CC(=O)Nc1ccc(OCC(=O)N(C)Cc2ccccc2)nc1,inactive,
COCCn1c(C)cnc1CC1CCN(S(=O)(=O)c2cccc(OC)c2)C1 (stereo not drawn),"inconclusive: 17.8 µM [inhibitor, single point]",
Cc1ccc(CCNC(=O)C(C)n2nc(C)c3c(C)n(-c4ccc(C)cc4)nc3c2=O)cc1 (stereo not drawn),inactive,
COc1ccc(/C=C/c2ccc3c(c2)C(=O)N2C[C@@H](NC(=O)c4cccn4C)C[C@H]2C(=O)N3)cc1,inactive,
CNC(=O)[C@@H]1CN(C(=O)CC2CCCC2)C[C@H]1COC,inactive,
CCOC(=O)N1CCC(NC(=O)c2ccc3c(c2)N(Cc2ccc(F)cc2)C(=O)c2ccccc2S3=O)CC1 (stereo not drawn),"inconclusive: 3.98 µM [inhibitor, single point]",
COc1ccc(CCNC(=O)c2nc(SCc3ccc(F)cc3)ncc2Cl)cc1OC,"inconclusive: 12.6 µM [inhibitor, single point]",
COCC[C@]1(O)CCN(C(=O)C2CCN(C3CCCC3)CC2)C[C@H]1C,inactive,
CCN1CCN(Cc2nc3cc(NC(=O)c4cccc([N+](=O)[O-])c4)ccc3n2CC)CC1,active: 7.94 µM,
COc1ccc(Nc2cc3c(cn2)NCCN(Cc2ccccc2)C3)cn1,inactive,
Cc1ccc(F)cc1S(=O)(=O)N1CCC(OC2CCN(Cc3ccccc3)CC2)CC1,"inconclusive: 6.31 µM [inhibitor, partial curve, poor fit]",
O=C(CN1C(=O)NC2(CCOCC2)C1=O)Nc1ccc(Br)cc1F,inactive,
CC(C)CNC(=O)N1C[C@@H](Oc2cccnc2)C[C@@H]1C(=O)N1CCOCC1,inactive,
Cc1ccc(C)c(C(O)Cn2ccn3nc(-c4cccc(Br)c4)cc3c2=O)c1 (stereo not drawn),"inconclusive: 1.26 µM [inhibitor, partial curve, poor fit]",
CC(C)c1ccc(C(=O)NC[C@@H]2CC[C@H]3C[C@@H]2C3(C)C)cc1,"inconclusive: 22.4 µM [inhibitor, single point]",
COCCN1C(=O)[C@H]2CN(Cc3ccccc3C)C[C@H]2C1=O,inactive,
O=C(c1ccc(Cl)cc1)N1CC2(CCN(Cc3ccccn3)CC2)Cc2ccccc21,"inconclusive: 8.91 µM [inhibitor, single point]",
c1ccc(-c2ncn(CC3CCCO3)c2-c2cccc3cnccc23)cc1 (stereo not drawn),inactive,
CCc1nc(-c2c3n(c(=O)n(CC(=O)Nc4cccc(F)c4)c2=O)CCCCC3)no1,"inconclusive: 15.8 µM [inhibitor, single point]",
Cc1nc(C)c(C(=O)N2CCCC(Cc3noc(-c4cnccn4)n3)C2)s1 (stereo not drawn),inactive,

Structure (SMILES),Potency,"activity, negative = inhibition"
Cc1ncsc1CCNC(=O)c1ccc2nc(-c3ccccc3)cn2c1,"inconclusive: 10 µM [inhibitor, partial curve, poor fit]",
COc1cccc(S(=O)(=O)N2CC3(Cc4ccccc4NC3=O)C2)c1,inactive,
CCc1ccc(C2=CC(c3cccc(C)c3)n3c(nc4ccccc43)N2)cc1 (stereo not drawn),"inconclusive: 1.12 µM [inhibitor, full curve, poor fit]",
O=C(NCc1cccnc1)c1nc(-c2ccccc2)c2ccccn12,active: 10 µM,
O=C(C1CCCC1)N1CCC(C2CCN(Cc3cccc(F)c3F)CC2)C1 (stereo not drawn),inactive,
CCOC(=O)C1(Cc2ccc(F)cc2F)CCCN(C(=O)Nc2ccc3c(c2)OCO3)C1 (stereo not drawn),"inconclusive: 11.2 µM [inhibitor, single point]",
O=[N+]([O-])c1ccc(C(c2sc3nc(-c4ccco4)nn3c2O)N2CCN(Cc3ccccc3)CC2)cc1 (stereo not drawn),"inconclusive: 17.8 µM [inhibitor, single point]",
CC(C)[S+](=O)([O-])N1CCC2OCCN(Cc3ccccc3F)C(=O)C2C1 (stereo not drawn),"inconclusive: 22.4 µM [inhibitor, single point]",
COc1ccc(-c2ccnc3nc(Cc4cc(F)cc(F)c4)nn23)c(F)c1,"inconclusive: 20 µM [inhibitor, single point]",
CCOc1ccc(NC(=O)Cn2c(-c3ccccc3)nc(C)cc2=O)cc1,"inconclusive: 5.01 µM [inhibitor, single point]",
O=C(C1CCCC1)N1CC2(CCN(C3CCCCC3)CC2)Cc2ccccc21,"inconclusive: 8.91 µM [inhibitor, partial curve, poor fit]",
COc1cccc(CN2CCc3nc(C(=O)NCC4CC4)oc3CC2)c1,"inconclusive: 14.1 µM [inhibitor, single point]",
Clc1ccc(-c2nnc3n2CCN(Cc2ccsc2)C3)cc1,,inconclusive: -47.7% [inhibitor]
COc1ccc(NC(=O)c2cnc3c(c2)N(C(=O)Cc2ccccc2OC)CCC3)cn1,"inconclusive: 0.708 µM [inhibitor, partial curve, poor fit]",
CCOC(=O)Cn1c(C2CC(=O)N(c3ccc(C)cc3)C2)nc2ccccc21 (stereo not drawn),inactive,
COc1ccc(CCN2CC(C(=O)N3CCN(C)CC3)CCC2=O)cc1 (stereo not drawn),inactive,
O=C1CN(Cc2ccccc2)CCN1c1ccc(Cl)nn1,inactive,
CNC(=O)N1CCC(C2CCN(C(=O)c3ccc(OC)cc3)C2)CC1 (stereo not drawn),inactive,
Cn1c(=O)c2sccc2n2c(CCCC(=O)Nc3ccc(Cl)cc3)nnc12,"inconclusive: 10 µM [inhibitor, partial curve, poor fit]",
NC(=O)c1cccnc1OC1CCN(CCc2ccccc2)CC1,"inconclusive: 3.98 µM [inhibitor, single point]",
COc1cccc(-c2cc(-c3c(C)noc3C)c3cncn3c2)c1,active: 5.62 µM,
O=C1OC[C@@H]2CCN(CC3CC3)Cc3ccc(F)cc3N12,inactive,
CC(=O)Nc1ccc(NC(=O)CCc2c(C)nc3c(c(C)nn3-c3ccc(C)cc3)c2C)cc1,"inconclusive: 11.2 µM [inhibitor, single point]",

Structure (SMILES),Potency,"activity, negative = inhibition"
C[C@H]1[C@@H]2[C@H]3OC(=O)[C@@H](C)[C@@H]3CC[C@@]2(C)CC[C@@H]1NC(=O)Cc1ccccc1,"inconclusive: 31.6 µM [inhibitor, single point]",
COc1ccc(-c2cnc3[nH]cc(CC(=O)Nc4ccc(F)c(Cl)c4)c3c2)cc1,"inconclusive: 0.708 µM [inhibitor, full curve, poor fit]",
CC(=O)Nc1ccccc1-c1nc2ccccc2n(C(C)C(=O)Nc2cc(Cl)ccc2C)c1=O (stereo not drawn),"inconclusive: 12.6 µM [inhibitor, single point]",
O=C(NCCn1cccc1-c1nc(-c2ccccc2)no1)c1ccccc1F,"inconclusive: 11.2 µM [inhibitor, single point]",
O=c1c(-c2cccs2)ccc2n1C[C@H]1C[C@@H]2CN(C2CCOCC2)C1,"inconclusive: 31.6 µM [inhibitor, single point]",
CCc1nc2c(c(-c3ccc(O)cc3)n1)CN(Cc1ccccc1)CCC2,"inconclusive: 3.98 µM [inhibitor, single point]",
COc1ccc(NC(=O)N2CCc3c(C(=O)N(C)Cc4ccco4)cccc32)cc1,inactive,
O=C(CSc1nc2ccccc2n1Cc1ccc(F)cc1)N1CCN(c2ccc(F)cc2)CC1,"inconclusive: 10 µM [inhibitor, single point]",
F[C@@H]1CN(Cc2ccnc3ccccc23)C[C@@H]1OCc1nc2ncccc2[nH]1,"inconclusive: 14.1 µM [inhibitor, single point]",
COc1ccc(N2CCOC3CCN(Cc4ccc(C(C)C)cc4)CC3C2=O)cc1 (stereo not drawn),inactive,
CN1C(=O)C2(CCN(C(=O)CCC3CCCCC3)CC2)c2ccccc21,active: 5.01 µM,
COc1ccc(-c2cc(OC(=O)c3ccccc3C)c3c(C)oc(C)c3c(=O)c2)cc1,"inconclusive: 10 µM [inhibitor, single point]",
CC(=O)N1CCCc2cc(S(=O)(=O)N(CCN(C)C)Cc3ccccc3)ccc21,"inconclusive: 11.2 µM [inhibitor, partial curve, poor fit]",
CCc1ccc2oc(C(=O)NCC(c3ccc(Cl)cc3)N3CCOCC3)c(C)c2c1 (stereo not drawn),active: 11.2 µM,
O=C(c1ccc2ncccc2c1)N1CCc2c(nc3cc[nH]n3c2=O)C1,"inconclusive: 1.26 µM [inhibitor, partial curve]",
COc1ccc(Nc2nc(-c3c(C)noc3C)cc3cc(CN(C)C)oc23)cn1,"inconclusive: 3.55 µM [inhibitor, full curve, poor fit]",
CCN(C(=O)Cn1cccc1-c1nc(-c2ccc(OC)c(F)c2)no1)c1cccc(C)c1,"inconclusive: 11.2 µM [inhibitor, partial curve, poor fit]",
Cc1ccccc1NC(=O)Nc1csc2c1CCCC2,"inconclusive: 10 µM [inhibitor, partial curve]",
CCOc1ccc(CN2C(=O)c3ccccc3Sc3ccc(C(=O)NCc4ccc5c(c4)OCO5)cc32)cc1,active: 10 µM,
Cc1cccc(N2Cc3c(ncnc3N3CCC(N4CCOCC4)CC3)CN(C)C2=O)c1,inactive,
CNCC(=O)N[C@H]1CCN2C(=O)c3cc(-c4cc(Cl)ccc4OC)ccc3NC(=O)[C@@H]2C1,"inconclusive: 20 µM [inhibitor, single point]",
COc1cccc(Nc2nc(-c3ccccc3)no2)c1,"inconclusive: 15.8 µM [inhibitor, single point]",
